Measurements: PubChem BioAssay AID1454 (National Center for Advancing Translational Sciences (NCATS), 2008)
The whole screen tested about 130,000 compounds, of which about 550 (0.42%) were called active. Not shown: some 4% with an inconclusive outcome. Calls follow the shape of the dose curve; as a rule, active = well fitted inhibition curve with a large enough effect; inconclusive = small, poorly fitted or top-dose-only effect, or effect the other way; inactive = flat fitted curve, though single readings scatter. The entries are a selection whose mix differs from that of the whole data set. Where a structure was tested more than once in an assay, its records may differ in their call.

Assay: qHTS Assay for Inhibitors of the ERK Signaling Pathway using a Homogeneous Screening Assay; Stimulation with EGF; also: nearly all actives have a fitted effect of over 55% in size;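 as to activity change, negative = inhibition: plate controls were stimulated vehicle wells for no effect and unstimulated vehicle basal for full effect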
Conditions: HEK293-V1b, EGF-stimulated phospho-ERK AlphaScreen; activity change, negative = inhibition: at the top concentration
Description: NIH Chemical Genomics Center [NCGC]
NIH Molecular Libraries Screening Centers Network [MLSCN]
Assay Submitter (PI): Dr. Wei Zheng, NCGC/NIH
The Ras/extracellular-signal-regulated kinase (ERK) mitogen activated protein (MAP) kinase signaling pathway (ERK1/2 cascade) plays a key role in transmitting signals from the cell surface to the nucleus (Nishida and Gotoh 1993; Chang and Karin, 2001). The cascade is initiated by the small G-protein Ras, which recruits Raf from the cytosol, where activation occurs. Alternatively, this pathway can be activated by elevating intracellular cAMP, or by activation of a receptor tyrosine kinase as epidermal growth factor receptor.
Activation of the ERK pathway is essential in increased cell division and cell survival. Sustained and constitutive activation of the ERK pathway, however, has been linked to uncontrolled cell proliferation, increased cell survival, and tumor progression. Thus, the ERK has been as an attractive target for cancer chemotherapy in the past few years (Sebolt-Leopold and Herrera, 2004). Given its physiological and pathological importance, assessment of ERK phosphorylation has been broadly performed in both basic research and drug discovery. Most assays for the measurement of ERK phosphorylation use the antibody-based detection methods, such as western blot and ELISA. These assays require multiple reagent additions with cell wash steps and are not suitable for high throughout screening.
The current cell-based ERK phosphorylation assay was performed using AlphaScreen platform. AlphaScreen is a two bead-based proximity-dependent chemical energy transfer luminescent assay platform. The assay reagents (ERK SureFire(TM) kit) were supplied from TGR BioSciences (Australia). In the presence of specific antibodies, phosphorylated ERK will bring "donor" and "acceptor" beads to a proximity range (<200 nm), and subsequently lead a chemical luminescent reaction upon exciting donor beads with 680 nm laser. To exclude the assay-related false positives, we used a biotinylated rabbit IgG to perform counter-screen. The biotinylated antibody mimics the phosphorylated ERK1/2 for bringing streptavidin coated beads and protein-A coated beads to a proximity range for the AlphaScreen detection.
NCGC Assay Protocol Summary:
HEK293 cells stably expressing type-1 vasopressin receptor (V1b) were maintained in DMEM medium (Invitrogen, Carlsbad, CA) at 37C under a humidified atmosphere containing 5% CO2 and 95% air. The medium contained 10% FBS, 2 mM L-glutamine, non-essential amino acid, pyruvate and 50 U/ml penicillin and 50 ug/ml streptomycin (Invitrogen). The aliquots of frozen cells were stored at -135C and used for the compound screening. All compounds were screened as titrations from 0.6 nM to 46 uM final concentration. Epidermal growth factor (EGF) was used to stimulate the ERK phosphorylation pathway. The ERK phosphorylation in cells was determined using an AlphaScreen assay kit provided by […]. Data were normalized to the controls for basal activity (DMSO only) and 100% activation (25 nM EGF). AC50 values were determined from concentration-response data modeled with the standard Hill equation.
(1) Seed 4 ul/well of resuspended frozen HEK293 cells containing 2000 cells in white 1536-well plates for overnight with 1% FBS at 37C under a humidified atmosphere containing 5% CO2 and 95% air.
(2) Add 23 nL compounds in DMSO solution. The final titration was 0.6 nM to 46 uM.
(3) Incubate at 37C for 30 min.
(4) Dispense 0.5uL EGF (25 nM in final)
(5) Incubate at 37C for 5 min.
(6) Dispense 0.5uL of 1:2 diluted 5x lysis buffer.
(7) Incubate at 37C for 10 min.
(8) Dispense 1.5uL of mixture of activation buffer and reaction buffer with AlphaScreen beads (streptavidin donor beads and protein-A acceptor beads, 10 ng/well for each).
(9) Incubate at room temperature for 5 hr.
(10) Detect the assay plate in an EnVision plate reader (PerkinElmer) using the AlphaScreen detection mode.
[…]
Potency is read from the fitted curve at half-maximal effect.

| SMILES | activity change, negative = inhibition | Potency |
| --- | --- | --- |
| O=C(NCc1ccccc1)C1=C[C@H](c2csc3ccccc23)C[C@H](OCCCCO)O1 | inactive: -6.6% [at 57.5 µM] | – |
| N[C@@H](Cc1ccc(O)c(O)c1)C(=O)O | inactive: 5.25% [at 25.7 µM] | – |
| C=CC[n+]1c(/C=C2\C=Cc3cc(C)ccc3N2CC)ccc2ccccc21 | – | active: 22.4 µM |
| O=C1c2c(O)ccc(O)c2C(=O)c2c(NCCNCCO)ccc(NCCNCCO)c21 | inactive: 11.8% [at 25.7 µM] | – |
| COC(=O)[C@@]1(Cc2ccc(OC)cc2)[C@H]2c3cc(C(=O)N(C)C)[nH]c3C[C@H]2CN1C(=O)c1ccccc1 | inactive: -2.58% | – |
| OC(CCN1CCCCC1)(c1ccccc1)c1ccccc1 | – | inactive |
| CCCCN1C(=O)c2ccc(C(=O)Nc3ccc(C)c(S(=O)(=O)N(C)C)c3)cc2C1=O | – | active: 25.1 µM |
| CN1CCC(=C2c3ccccc3CCc3sccc32)CC1 | – | inactive |
| CN1CCN(c2c(F)cc3c(=O)c(C(=O)O)cn4c3c2SCC4)CC1 | inactive: 5.43% | – |
| COC(=O)C1=C(C)NC(C)=C(C(=O)OCCN(C)Cc2ccccc2)C1c1cccc([N+](=O)[O-])c1 (centres undefined) | inactive: -2.48% [at 57.5 µM] | – |
| CCN(CC)c1ccc(NC2=C(Cl)C(=O)c3ccccc3C2=O)cc1 | – | active: 10 µM |
| CCCCCCCCCCCC1=C(O)C(=O)C=C(O)C1=O | – | inactive |
| Cc1cc(N=Nc2ccc(Cl)cc2)cc(CN2CCCC2)c1O | – | active: 31.6 µM |
| Cc1cccc(CN2CCN([C@@H](c3ccccc3)c3ccc(Cl)cc3)CC2)c1 | inactive: -1.61% [at 25.7 µM] | – |
| CCc1oc2ccccc2c1C(=O)c1cc(Br)c(O)c(Br)c1 | – | inactive |
| CC1(C(=O)NCCc2c[nH]c3ccccc23)C=CCN1C(=O)c1ccccc1 (centres undefined) | inactive: -6.71% | – |
| CCC(C)C(=O)OC1CCC=C2C=CC(C)C(CCC3CC(O)CC(=O)O3)[C@@H]21 (some centres undefined) | inactive: 19.1% | – |
| O=C(Nc1cccc(Br)c1)c1ccc(OC2CSC2)cc1 | – | active: 25.1 µM |
| C=C[C@@]1(C)CC(=O)[C@@]2(O)[C@@]3(C)[C@@H](O)CCC(C)(C)[C@@H]3[C@H](O)[C@H](OC(C)=O)[C@@]2(C)O1 | inactive: -5.31% | – |
| C[C@@H]1CCC2C(C)(C)C3CC21CC[C@@]3(C)O (some centres undefined) | inactive: -14.1% | – |

| SMILES | activity change, negative = inhibition | Potency |
| --- | --- | --- |
| Fc1cccc(Nc2ncnc3sc4c(c23)CCC4)c1 | – | active: 3.16 µM |
| COc1cc2c(cc1OC)-c1c(OC)c(OC)cc3ccnc(c13)C2=O | inactive: 0.74% | – |
| CC1(C)CCC2=C(O1)c1ccccc1C(=O)C2=O | inactive: -5.73% | – |
| Cn1c(=O)c(C(=O)COC(=O)c2cc(C(F)(F)F)nc3c(C(F)(F)F)cccc23)c(N)n(CC2CC2)c1=O | inactive: 9.47% | – |
| O=C1C(SCCO)=C(SCCO)C(=O)c2ccccc21 | inactive: -2.02% | – |
| C=CCC1C=C(Cc2ccccc2)CC(CC=C)N1 (centres undefined) | inactive: -0.867% | – |
| CC1(C)CC(C(CCN(Cc2ccccc2)C(=O)c2ccco2)c2ccc(F)cc2)CCO1 (centres undefined) | – | active: 22.4 µM |
| COC(=O)C1=C(C)NC(C)=C(C(=O)OCCN(C)Cc2ccccc2)[C@H]1c1cccc([N+](=O)[O-])c1 | inactive: 9.79% [at 25.7 µM] | – |
| Cc1csc(=Nc2ccccc2)n1C | inactive: -0.549% | – |
| CCC(C)n1ncn(-c2ccc(N3CCN(c4ccc(OCC5COC(Cn6cncn6)(c6ccc(Cl)cc6Cl)O5)cc4)CC3)cc2)c1=O (centres undefined) | inactive: -8.44% [at 57.5 µM] | – |
| Nc1ncnc2c1ncn2[C@@H]1O[C@@H](CO)[C@H](O)[C@H]1O | inactive: 10.1% [at 25.7 µM] | – |
| C#CCN(C)CCCOc1ccc(Cl)cc1Cl | – | inactive |
| O=C1C=C(Nc2ccc(Cl)cc2)CC(c2ccc(Cl)cc2)C1 (centres undefined) | – | active: 14.1 µM |
| CC(C)(CO)Cc1cc(C(C)(C)C)c(O)c(C(C)(C)C)c1 | inactive: 3.48% | – |
| CC(=O)/C(=N/Nc1ccccc1[N+](=O)[O-])N1CCCc2ccccc21 | – | active: 12.6 µM |
| CC1(C(=O)O)C=CCN1C(=O)c1ccccc1 (centres undefined) | inactive: -16.8% | – |
| O=C(NCC1CC1)[C@@H]1C[C@H]1[C@@H](NP(=O)(c1ccccc1)c1ccccc1)c1ccccc1 | inactive: -0.404% | – |
| CCCCCCCCCCCCC/C=C/[C@@H](O)[C@@H](N)CO | inactive: -19.1% | – |
| CC1=C(C(=O)O)N2C(=O)[C@@H](NC(=O)C(N)c3ccccc3)[C@H]2SC1 (some centres undefined) | inactive: -5.86% | – |
| C[C@@H]1OC(OC2CC[C@@]3(C)C(CC[C@@]4(C)C3CC=C3C5CC(C)(C)CC[C@]5(C(=O)OC5OCC(O)[C@@H](O)[C@@H]5OC5O[C@@H](C)[C@H](O[C@H]6OC(CO)C(O)C(O)C6O)C(O)C5O)C(O)C[C@@]34C)C2(C)C)C(O)C(O)[C@H]1OC1OCC(O)C(O)[C@H]1O (some centres undefined) | – | active: 14.1 µM |

| SMILES | activity change, negative = inhibition | Potency |
| --- | --- | --- |
| CC1CCCN(C2=C(NS(=O)(=O)c3ccc(Cl)cc3)C(=O)c3ccccc3C2=O)C1 (centres undefined) | – | active: 10 µM |
| CN1Cc2c(N)cccc2[C@H](c2ccccc2)C1 | inactive: 2.75% [at 25.7 µM] | – |
| COc1cccc2c1C(=O)c1c(O)c3c(c(O)c1C2=O)C[C@](O)(C(=O)CO)C[C@H]3O[C@@H]1C[C@H](N)[C@H](O)[C@H](C)O1 | inactive: -1.62% [at 25.7 µM] | – |
| Clc1ccccc1CN1CCN(/N=C/C=C/c2ccco2)CC1 | inactive: -6.58% [at 57.5 µM] | – |
| CN1Cc2c(N)cccc2C(c2ccccc2)C1 (centres undefined) | – | inactive |
| CSc1ccc2c(c1)[C@H](N1CCN(C)CC1)Cc1ccccc1S2 | – | inactive |
| CCc1ccc(N=c2c([N+](=O)[O-])nn(-c3ccc4c(c3)OCCO4)n2O)cc1 | – | active: 28.2 µM |
| CC(C)c1ccc2c(c1)c(SC(C)(C)C)c(CC(C)(C)C(=O)O)n2Cc1ccc(Cl)cc1 | inactive: 2.26% | – |
| CC(C)(C)c1cc(Br)c(O)c(N=Nc2ccc(S(=O)(=O)N3CCOCC3)cc2)c1 | – | active: 25.1 µM |
| c1ccc(Nc2ncnc3ccc(-c4cccnc4)cc23)cc1 | – | active: 2.51 µM |
| CC(C)(Sc1ccc(CCN(CCCCC2CCCCC2)C(=O)NC2CCCCC2)cc1)C(=O)O | inactive: -7.76% | – |
| CC(C)c1ccc2c(c1)CC[C@@H]1[C@@](C)(CN)CCC[C@]21C | inactive: 5.55% | – |
| OC(CCCN1CCCCC1)(c1ccccc1)c1ccccc1 | inactive: -3.04% [at 25.7 µM] | – |
| O=C1ON=C(c2ccccc2)/C1=C/c1ccco1 | inactive: 3.45% | – |
| CC1C/C(=N/Nc2ccc([N+](=O)[O-])cc2[N+](=O)[O-])CC(C)(C)C1 (centres undefined) | – | active: 12.6 µM |
| CN1CCC(=C2c3ccccc3CC(=O)c3sccc32)CC1 | – | inactive |
| Oc1ccccc1Nc1nc(NCc2ccco2)c2ccccc2n1 | – | active: 31.6 µM |
| COc1ccc(N=c2oc3cc(O)ccc3cc2C(=O)Nc2ccccn2)cc1OC | – | active: 28.2 µM |
| CN1CCc2cccc3c2[C@H]1Cc1ccc(O)c(O)c1-3 | inactive: -5.13% | – |
